# Assay results from PubChem BioAssay AID995 (National Center for Advancing Translational Sciences (NCATS), 2007).
# Among all 72,000 compounds or so, about 710 (0.99%) were called active. Inconclusive results, whose numbers are uncertain, are shown with a selection of clear calls. Calls come from the whole dose curve; as a rule, active = well fitted inhibition curve with a large enough effect; inconclusive = small, poorly fitted or top-dose-only effect; inactive = no such curve, though single readings can be large or run the other way. No potency is given beside an inconclusive call; the fits are too rough.
# Experiment: qHTS Assay for Inhibitors of the ERK Signaling Pathway using a Homogeneous Screening Assay; note: nearly all actives have a fitted effect of over 55% in size
# Conditions: HEK293-V1b, vasopressin-stimulated pERK AlphaScreen; activity, negative = inhibition: at 57.5 µM (top of the series) unless noted
# Source text: qHTS Assay for Inhibitors of the ERK Signaling Pathway using a Homogeneous Screening Assay; note: nearly all actives have a fitted effect of over 55% in size
# NIH Chemical Genomics Center [NCGC]
# NIH Molecular Libraries Screening Centers Network [MLSCN]
# Assay Submitter (PI): Dr. Wei Zheng, NCGC/NIH
# The Ras/extracellular-signal-regulated kinase (ERK) mitogen activated protein (MAP) kinase signaling pathway (ERK1/2 cascade) plays is a key role in transmitting signals from the cell surface to the nucleus (Nishida and Gotoh 1993; Chang and Karin, 2001). The cascade is initiated by the small G-protein Ras, which recruits Raf […], where activation occurs. Alternatively, this pathway can be activated by elevating intracellular cAMP.
# Activation of the ERK pathway is essential in increased cell division and cell survival. Sustained and constitutive activation of the ERK pathway, however, has been linked to uncontrolled cell proliferation, increased cell survival, and tumor progression. Thus, the ERK has been as an attractive target for cancer chemotherapy in the past few years (Sebolt-Leopold and Herrera, 2004). Given its physiological and pathological importance, assessment of ERK phosphorylation has been broadly performed in both basic research and drug discovery. Most assays for the measurement of ERK phosphorylation use the antibody-based detection methods, such as western blot and ELISA. These assays require multiple reagent additions with cell wash steps and are not suitable for high throughout screening.
# The current cell-based ERK phosphorylation assay was performed using AlphaScreen platform. AlphaScreen is a two bead-based proximity-dependent chemical energy transfer luminescent assay platform. The assay reagents (ERK SureFire(TM) kit) were supplied from TGR BioSciences (Australia). In the presence of specific antibodies, phosphorylated ERK will bring "donor" and "acceptor" beads to a proximity range (<200 nm), and subsequently lead a chemical luminescent reaction upon exciting donor beads with 680 nm laser. To exclude the assay-related false positives, we used a biotinylated rabbit IgG to perform counter-screen. The biotinylated antibody mimics the phosphorylated ERK1/2 for bringing streptavidin coated beads and protein-A coated beads to a proximity range for the AlphaScreen detection.
# NCGC Assay Protocol Summary:
# HEK293 cells stably expressing type-1 vasopressin receptor (V1b) were maintained in DMEM medium (Invitrogen, Carlsbad, CA) at 37C under a humidified atmosphere containing 5% CO2 and 95% air. The medium contained 10% FBS, 2 mM L-glutamine, non-essential amino acid, pyruvate and 50 U/ml penicillin and 50 ug/ml streptomycin (Invitrogen). The aliquots of frozen cells were stored at -135C and used for the compound screening. All compounds were screened as titrations from 0.6 nM to 46 uM final concentration. Vasopressin was used to stimulate the ERK phosphorylation pathway. The ERK phosphorylation in cells was determined using an AlphaScreen assay kit provided by PerkinElmer. Data were normalized to the controls for basal activity (DMSO only) and 100% activation (25 nM vasopressin). AC50 values were determined from concentration-response data modeled with the standard Hill equation.
# (1) Seed 4 ul/well of resuspended frozen HEK293 cells containing 2000 cells in white 1536-well plates for overnight with 1% FBS at 37C under a humidified atmosphere containing 5% CO2 and 95% air.
# (2) Add 23 nL compounds in DMSO solution. The final titration was 0.6 nM to 46 uM.
# (3) Incubate at 37C for 30 min.
# (4) Dispense 0.5uL vasopressin (25 nM in final)
# (5) Incubate at 37C for 5 min.
# (6) Dispense 0.5uL of 1:2 diluted 5x lysis buffer.
# (7) Incubate at 37C for 10 min.
# (8) Dispense 1.5uL of mixture of activation buffer and reaction buffer with AlphaScreen beads (streptavidin donor beads and protein-A acceptor beads, 10 ng/well for each).
# (9) Incubate at room temperature for 5 hr.
# (10) Detect the assay plate in an EnVision plate reader (PerkinElmer) using the AlphaScreen detection mode.
# […]
# % is set by controls: 0 for no effect and ±100 for the full control effect; potency is the fitted concentration of half-maximal effect; tags give direction and shape of the fitted curve.
Compound,Potency,"activity, negative = inhibition"
N#C/C(=C\c1ccc(O)c(O)c1)C(=O)NCCCCc1ccccc1,active: 39.8 µM,
COc1ccc2c(c1)c(=O)oc1cc(OCC(=O)N3CCCC(C)C3)ccc12 (stereo not given),active: 31.6 µM,
Cc1c(C(=O)NCc2cccnc2)oc2ccc(S(=O)(=O)N3CCCCC3)cc12,"inconclusive [inhibitor, single point]",
CCc1nc(NCCCn2ccnc2)c2oc3ccccc3c2n1,"inconclusive [inhibitor, single point]",
Cn1cc(-c2nc3cnc(N4CCNCC4)nc3n(C3CC3)c2=O)c2ccccc21,"inconclusive [inhibitor, partial curve]",
COC(=O)C1=C(C)n2nnnc2NC1c1cc2ccccc2o1 (stereo not given),"inconclusive [inhibitor, partial curve]",
CCOC(=O)c1cccc(NC(=O)C2CCCN2S(=O)(=O)c2cccc3cccnc23)c1 (stereo not given),,inactive: -10.7%
CCc1c(C(C)O)oc2ccc3c(C)cc(=O)oc3c12 (stereo not given),"inconclusive [inhibitor, partial curve]",
CCc1nnc(NC2=NCCC2)s1,"inconclusive [inhibitor, single point]",
CCOC(=O)N1CCN(C(=O)C2CCN(c3ncnc4c3sc3cccc(F)c34)CC2)CC1,"inconclusive [inhibitor, partial curve]",
CC(=O)N1CCC2(CCN(Cc3ccncc3)CC2)CC1,,inactive: 2.59%
CC1CCN(C(=O)CSc2nc3ccccc3[nH]2)CC1,"inconclusive [inhibitor, partial curve, poor fit]",
Cc1cccc(CNc2cc(-c3ccccc3Cl)ncn2)c1,,inactive: -19.9%
N[C@@H](Cc1ccnnc1)C(=O)O,,inactive: -17.1% [at 11.5 µM]
CCOC(=O)C1=C(CS(=O)(=O)c2ccc(F)c(C)c2)NC(=O)NC1c1ccc(O)c(O)c1 (stereo not given),active: 25.1 µM,
O=S(=O)(c1ccc(F)cc1)N(CCO)CC(O)Cn1c2ccccc2c2ccccc21 (stereo not given),"inconclusive [inhibitor, partial curve]",
CCOc1ccc(-c2nc(S(=O)(=O)c3ccccc3)c(NCc3cccnc3)o2)cc1,"inconclusive [inhibitor, partial curve]",
N#Cc1c2c(c(NCc3ccco3)n3c1nc1ccccc13)CCC2,,inactive: 34%
CCc1nnc(NC(=O)c2ccc(OC)cc2OC)s1,,inactive: -6.68%
Cc1cnc(NC(=O)c2ccc(-c3nc4ccccc4s3)o2)s1,active: 20 µM,
COc1ccc(-c2cn[nH]c2N)c(OC)c1,"inconclusive [inhibitor, single point]",
CCOC(=O)Cc1nnc(NC(=O)C(CC)Sc2nnc3c4ccccc4n(C)c3n2)s1 (stereo not given),"inconclusive [inhibitor, full curve, poor fit]",
CCCc1[nH]nc2c1C(c1cn[nH]c1-c1ccc(F)cc1)C(C#N)=C(N)O2 (stereo not given),"inconclusive [inhibitor, single point]",
C1=Nc2c(NCc3ccccc3)ncnc2Oc2ccccc21,"inconclusive [inhibitor, partial curve]",

Compound,Potency,"activity, negative = inhibition"
CCCNC(=O)OC[C@@H]1O[C@H](CCO/N=C(\C)CCN2CCc3nc(-c4ccccc4)c(-c4ccccc4)cc3C2)C=C[C@@H]1Oc1ccc(OC)cc1,,inactive: -2.11% [at 11.5 µM]
COc1ccccc1N1CCN(c2nc3ccccc3nc2C(C#N)C(=O)OC(C)C)CC1 (stereo not given),"inconclusive [inhibitor, partial curve]",
Cc1csc(NC(=O)c2cccc(S(=O)(=O)N3CCCCC3)c2)n1,,inactive: -13%
CCNc1nc(NC(C)C)nc(N(C#N)Cc2ccccc2)n1,"inconclusive [inhibitor, single point]",
CN1CCc2nc(N)nc(-c3nc(N)nc4c3CN(C)CC4)c2C1,,inactive: -10.3% [at 11.5 µM]
Cc1cc(O)cc(O)c1C(=O)Cc1cscn1,"inconclusive [inhibitor, single point]",
CSc1ccc(Cn2nnc(C(=O)NCc3ccccc3)c2N)cc1,"inconclusive [inhibitor, single point]",
CCOC(=O)c1cc(C(C)(C)C)oc1CN,"inconclusive [inhibitor, single point]",
Cc1cc(NS(=O)(=O)c2ccc(NC(=O)COc3ccccc3Cl)cc2)no1,"inconclusive [inhibitor, partial curve, poor fit]",
O=c1oc2ccccc2cc1NCc1ccccc1O,"inconclusive [inhibitor, partial curve]",
CCOC(=O)CSc1nc2c(sc(=S)n2Cc2ccco2)c(=O)n1-c1ccccc1,"inconclusive [inhibitor, partial curve]",
N#CC(C(=O)c1ccc(S(=O)(=O)N2CCCCCC2)cc1)c1nc2ccccc2[nH]1 (stereo not given),"inconclusive [inhibitor, single point]",
CC(=O)OCCNC(=O)c1cc2ccccc2oc1=O,"inconclusive [inhibitor, partial curve]",
COc1cccc(Cn2c(=O)c(C)nc3cnc(Oc4cccc(Cl)c4)nc32)c1,,inactive: 11.8%
CCOc1cccc(C(=O)Nc2cccc(-c3nc4ncccc4o3)c2C)c1,active: 12.6 µM,
COc1ccc(N2CCN(CC(O)c3c[nH]c4ccc(OC)cc34)CC2C)cc1 (stereo not given),"inconclusive [inhibitor, partial curve]",
COc1cccc(-c2cc(C(=O)N3CCN(c4ncccn4)CC3)c3ccccc3n2)c1,"inconclusive [inhibitor, full curve, poor fit]",
COc1cc(-c2cc(=O)c3ccccc3o2)ccc1O,"inconclusive [inhibitor, partial curve, poor fit]",
Cc1ccc(C)c(C(=O)CSc2n[nH]c(C)n2)c1,,inconclusive: -34.1% [inhibitor]
O=C(COC(=O)C12CC3CC(CC(C3)C1)C2)NCc1ccco1,"inconclusive [inhibitor, full curve, poor fit]",
CCNc1oc(-c2cccc3ccccc23)nc1C#N,,inactive: 5.95%
COc1ccc(OCCn2c(=N)n(CCO)c3ccccc32)cc1,,inactive: -18.4%
C=C(C)CSc1nncn1/N=C/c1ccc(OC)cc1,"inconclusive [inhibitor, partial curve]",
CCCCN1C(=O)/C(=C2\SC(N3CCCCC3)=NC2=O)c2ccccc21,active: 25.1 µM,

Compound,Potency,"activity, negative = inhibition"
O=C(NCCOC(=O)c1ccc(Cl)c(S(=O)(=O)N2CCCCC2)c1)c1ccncc1,"inconclusive [inhibitor, single point]",
CCOC(=O)N1CCN(C(=O)c2cc3c(=O)n(C)c4ccccc4c3n2C)CC1,"inconclusive [inhibitor, partial curve]",
O=c1cc(-c2ccc(O)cc2)oc2cc(OC3OC(CO)C(O)C(O)[C@H]3O[C@@H]3OC[C@@](O)(CO)C3O)cc(O)c12 (stereo not given in full),,inactive: -15.9%
COc1ccc(N2CCN(C(c3cc(OC)ccc3OC)c3nnnn3Cc3ccco3)CC2)cc1 (stereo not given),"inconclusive [inhibitor, single point]",
Oc1ccccc1-c1cc(C(F)(F)F)[nH]n1,"inconclusive [inhibitor, partial curve, poor fit]",
CCn1c(SCC(=O)OC)nc2sc3c(c2c1=O)CCC3,"inconclusive [inhibitor, partial curve, poor fit]",
CC(C)CN1CCCC2(CCN(C(=O)c3cccn3C)CC2)C1,,inactive: 15.6%
COc1ccc(S(=O)(=O)NCCSCc2ccco2)cc1,"inconclusive [inhibitor, single point]",
CCOC(=O)c1c(CN2CCCCC2C)oc2ccc(OC)cc12 (stereo not given),"inconclusive [inhibitor, full curve, poor fit]",
Cc1cc(NCCCN2CCOCC2)n2nc(C)c(-c3ccc(F)cc3)c2n1,"inconclusive [inhibitor, single point]",
O=c1c(-c2ccccc2)nc2cncnc2n1Cc1ccccc1,"inconclusive [inhibitor, partial curve, poor fit]",
O=C(COc1cccc(OC(F)F)c1)Nc1ccc(SC(F)F)cc1,"inconclusive [inhibitor, single point]",
CN(C)c1ccc(-c2nc(NCCc3cnc[nH]3)c3ccccc3n2)cc1,,inactive: -19.5%
O=C1CCCC2=C1C1(CCCCC1)N=C(Nc1nc3ccccc3o1)N2,"inconclusive [inhibitor, single point]",
Cc1ccc(CNC(=O)[C@H](C)[C@@H]2C[C@@]2(C)[C@@H](NC(=O)OCc2ccccc2)c2ccccc2)o1,,inactive: 4.09%
O=C(O)CSc1nc2ccc(Cl)cc2[nH]1,,inactive: -16.7%
N#C/C(=C(/N)Sc1ccc(N)cc1)c1ccccc1C(F)(F)F,active: 0.316 µM,
N#Cc1nc(COc2ccccc2F)oc1NCc1ccc(F)cc1,"inconclusive [inhibitor, single point]",
O=c1c(O)c(-c2ccc(O)cc2)oc2cc(O)cc(O)c12,,inconclusive: -30.2% [inhibitor]
N#CC1=C(N)NC(SCc2ccccc2)=C(C#N)C12CCCCC2,"inconclusive [inhibitor, single point]",
CN(C)c1ccc(-c2ccc3ncnc(NC4CC4)c3c2)cc1,"inconclusive [inhibitor, partial curve]",
O=c1[nH]cnc2c1C1(CCCC1)Cc1ccccc1-2,"inconclusive [inhibitor, partial curve]",
